Source: the supplement of paper PMC10126150
Values marked as one replicate rest on one cluster of the flow cell; about a third of the high ones do not repeat.

Test system: ATP
Experiment: switch fluorescence ratio, 500 uM ATP over buffer (Cy3 cluster intensity, sum of 5 cycles each) (fold (ratio)); higher = stronger signal-on switching upon ATP binding; sequences stand for … in TCGTCGGCAGCGTCAGATGTGTATAAGAGACAGTTTTTTTTTTTTTTTTTTTTTTTTT…TC
Details: aptamer strand: ATP DNA aptamer (quencher-CACCTGGGGGAGTATTGCGGAGGAAGG + anchor), 100 nM annealed; ATP concentration: 500 uM; one replicate
Summary of the method: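 The quencher-labelled ATP aptamer, at 100 nM, was annealed to Cy3-labelled switching-strand clusters on a modified Illumina MiSeq flow-cell. The clusters were imaged in selection buffer, then after 15 min with 500 uM ATP at 22 °C, and this buffer/ATP cycle ran five times with NaOH stripping and re-annealing between runs. Per-cluster fluorescence ratios, summed target-cycle over summed buffer-cycle Cy3 intensity, were averaged per switch-domain sequence. Clusters outside 100-1000 RFU were excluded.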
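Further: ATP exposure 15 min at 22 °C before imaging.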

Sequence | switch fluorescence ratio
ATTGAGGTAT | 0.992
TCTCGCCCAC | 1.74
AAGCCATAAT | 0.999
ACTTGCCGGA | 1.01
TTCGTCCTTA | 0.975
TCCATCTTGT | 0.952
CTGTCTAACT | 0.992
AAATTTAACG | 1.04
ACGGTAGTTA | 0.975
ACGTCCAGTG | 1.17
ATAAAGAGAT | 0.997
GTGATCCA | 1.01
CCGAGGCTGG | 1.67
ATTCGAAATT | 1.03
GCTCATACGT | 1.06
GGATCGGGGA | 1.04
AAAAATGG | 1.01
CATACCGCTG | 1.4
ACGTATTACG | 1
CCTCGGTGCA | 1.62
AATAACTGGG | 1.08
ATTGCGTACG | 1.03
TAGGTTGATT | 0.944

Sequence | switch fluorescence ratio
CATTCTCGGT | 1.01
TATGGTTCTG | 1.01
AGTTGCACCT | 1.03
AAAGGGAC | 1.03
GCCGCGTCTA | 1.03
TATATACCCT | 1.07
GTTAAGAGAA | 1.01
ACCTTCCCCT | 1.87
TAGCCATCCC | 1.06
TACTGATGCA | 0.95
ATCATTCACC | 1
CAATTTGGCT | 1.03
AATTTAGCAC | 1.05
TTCACCAAAT | 1.02
GATTTCAAGG | 1.01
AGTGCAAGG | 1.03
TCCGGGGATC | 1.08
TAATTTGACG | 0.907
CCTGGCTTAT | 1.18
ATCCTGCACT | 1.11
TTGGACGTCC | 1.03
TATTCAATGT | 1
CCGGGGCGCG | 1.02

Sequence | switch fluorescence ratio
ACCCTAGCTG | 1.06
AACGGGCGA | 1.04
GCAATAGCTG | 1.27
GGTTTTGGTC | 1.01
GCATCGAGTC | 0.971
TTTACCAAC | 1.14
ATCGTGCGT | 0.972
GACGCAGTTG | 1.19
GACGTAGACT | 1.19
CATAATTGA | 0.989
ATTTTTAATT | 0.995
AAGAGCATAT | 1.09
GTTGTCTACC | 1.03
CGGCCGAGCG | 1.01
CGCAGATGCC | 1.14
GATGGCGTGT | 1.01
ATCATTTCGC | 0.964
TCCTGTGCGG | 1.31
AGCTAAAAGG | 0.981
TTGTGGTGGA | 1.07
CGTGGATCGG | 0.962
TCAAGATCAG | 1.01
TGTCCGATTA | 1.04

Sequence | switch fluorescence ratio
GGAGTTCGTC | 0.92
TTCTAAGGTG | 1.44
GGTTGTCCGG | 1.01
TACCCTAGGA | 1.07
CGATAATCGG | 0.987
TCATTATGGC | 2.01
CCTATTTTTA | 0.971
CAACGGGGCT | 1.02
AGGGGGACGC | 1.01
TTAGGTATG | 1
GGAATATATG | 1.02
TAGTAGATCC | 1.04
TGGCGACCGG | 1
TTTTCTAGAT | 0.983
TCACTGTAAC | 1.23
TGCGTCCTGG | 0.989
TTCCTTTTCC | 1.1
TTAGTACAG | 1.02
GCTTTTGCTC | 0.981
GGCTCGGGCA | 0.966
ATTAATGCTG | 1.13
AATATGCATC | 1.01
TTAACCTAAT | 1.04

Sequence | switch fluorescence ratio
TCACTTAC | 1.46
TAGATACTGC | 1.05
CAGGTAATC | 1.08
ATTTTACTTA | 1.01
CGTTAGAGGG | 0.98
CGATATCCGT | 1.02
ATACGGTGGC | 1.12
ATACCTCCGA | 2.29
TAGGATCATT | 0.952
TAGGCCTTCT | 1.6
TGTAACTACA | 1.05
CTGTTTTCAC | 0.96
ACGCTGGCCT | 1.06
AAGCTTACCG | 1.16
GCGGTATTAT | 0.976
GGGTATAGCG | 0.925
GCCCGAGATA | 1.05
GTCGAGCCTT | 1
CCGGGACTAT | 1.14
AGTCTTTGCT | 1.02
ATATTTAGAT | 1
TGCCAAATTA | 0.945
GGGACATGGA | 1.03

Sequence | switch fluorescence ratio
GTAGGGATGC | 1.3
GTTGATGTTT | 0.984
CTAGCAAACG | 1.5
TTAGTAACAG | 1
ATAATAGTCT | 1.03
ACTCATTCCA | 1.02
GGGAAATGAC | 1.06
AAGGCCAAG | 1.04
ACTCCACTTC | 1.53
CGGAGGCTGA | 1.02
GTCACACATT | 1.03
AAGTTGCTTT | 1.02
CGCTTGTCTC | 1.18
TTAGGGTGGC | 1.05
AGCAGTTAT | 1.02
AATTGGTCTG | 0.996
AATGCGCATG | 0.988
CAAGGATAGT | 0.975
TTGGGCGT | 1.04
GACCAGGGTT | 1.02
CTTGCGAGTA | 0.996
ATAGTAGGGC | 1.08
ACATACTGGG | 1.35

Sequence | switch fluorescence ratio
TCTGGGATTT | 1.27
CCTACGTGTA | 4.61
TTAGTATGGT | 1.02
TCCTTAAGGT | 1.06
GTGGGCCGT | 1.11
GCTGGGGGTC | 1.01
GAGCAATGGG | 1.4
GCCAGTTCTG | 0.992
CTTGGTCCGA | 1.05
TTTCTTTCGC | 1.05
GACCAGGTTG | 1.47
TGGACTAATG | 1.08
CGGCCCGTTA | 1.04
ACTTATCTGA | 1.02
AATTTAGTT | 1.02
ATGATATACT | 1.03
CAATGTAAAC | 1.06
ATTGCTTCGA | 1.01
AGCGGGGCAA | 1.07
GGCGCGTCCG | 1
